Data reported in PubChem BioAssay AID686979 (National Center for Advancing Translational Sciences (NCATS), 2013).
The campaign covered roughly 420,000 compounds. About 50,000 (12%) were called active. Inconclusive results (about 26%) are left out. Calls come from the whole dose curve; as a rule, active = well fitted inhibition curve with a large enough effect; inconclusive = small, poorly fitted or top-dose-only effect; inactive = flat fitted curve, though single readings scatter. Only a part is listed here, and it is no random draw. Some structures have more than one record in an assay (separate samples or runs), and their calls can disagree.

Experiment: qHTS for Inhibitors of human tyrosyl-DNA phosphodiesterase 1 (TDP1): qHTS in cells in presence of CPT; note: nearly all actives have a fitted effect of over 55% in size
Conditions: chicken DT40 Tdp1-/-;hTDP1 cells + 20 nM CPT, ATP luminescence, 48 h; series mostly up to 46.2 µM; activity change, negative = growth inhibition: at the top concentration
Method in brief: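 Chicken DT40 Tdp1-/- cells stably complemented with human TDP1 were seeded at 400 cells/well in medium containing 20 nM camptothecin, exposed to pin-transferred compounds, and grown at 37 °C for at least 48 hr. Viability was read as ATP luminescence.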
% is set by controls: 0 for no effect and ±100 for the full control effect; potency is the fitted concentration of half-maximal effect.

| SMILES | activity change, negative = growth inhibition | Potency |
| --- | --- | --- |
| CC(OC(=O)c1cc2c(s1)CCCCC2)C(=O)NC(N)=O (stereo not given) | inactive: 22.4% | – |
| C[C@H](CO)N1C[C@H](C)[C@@H](CN(C)S(=O)(=O)c2ccc3ccccc3c2)OCc2cn(nn2)CCCC1=O | inactive: -2.94% | – |
| Clc1ccc2c(c1)C(N1CCNCC1)=Nc1ccccc1O2 | inactive: 1.63% | – |
| N#CC[C@H](Cc1ccccc1)N1CC[C@@H](NC(=O)OCc2ccccc2)CCC1=O | inactive: -29.6% | – |
| O=C(C[C@@H]1C/C=C/CC[C@H](Cc2ccc(F)cc2)C(=O)O[C@H](c2ccccc2)CNC1=O)NCCO | inactive: -0.642% | – |
| CC1(C)C=Cc2c(c3c(c4c(=O)c(-c5ccc(O)cc5)coc24)OC(C)(C)CC3)O1 | – | active: 18.4 µM |
| COc1cc(NC(=O)NCC2CCN(Cc3ccccc3Cl)CC2)cc(OC)c1OC | inactive: 8.7% | – |
| CCOC(=O)c1c(C)[nH]c(C)c1S(=O)(=O)NCCc1sccc1C | inactive: 0.693% | – |
| CCOC(=O)c1cnc2c(Cl)c(Cl)ccc2c1NCCN1CCOCC1 | inactive: -8.53% | – |
| CCOC(=O)CSC1=N/C(=C\c2cc(OC)c(OC)c(OC)c2)C(=O)N1C | inactive: 35.4% | – |
| CC(=O)Nc1ccc(-c2cc3ccccc3o2)cc1 | inactive: 34.8% | – |
| Cc1cccc(C)c1NC(=O)C1C(c2ccc3c(c2)OCO3)=Nc2ccccc2N1C(=O)c1cccc2ccccc12 (stereo not given) | – | active: 6.51 µM |
| Cc1ccc(N(CC2=NCCN2)c2cccc(O)c2)cc1 | – | inactive |
| Cc1cc(C)c(NC(=O)CSc2nc3c(c(=O)n2C)SC(C)C3)c(C)c1 (stereo not given) | – | active: 20.6 µM |
| CC1CCN(c2nc3c(=O)[nH]c(N)nc3n2[C@@H]2O[C@H](CO)[C@@H](O)[C@H]2O)CC1 | inactive: -1.31% | – |
| CC1(OC(=O)CCc2ccccc2)C(=O)C=C2C=C(c3ccc(C#N)cc3)N(CC3CC3)C=C2C1=O (stereo not given) | – | active: 14.6 µM |
| C[C@@H](O)CNC(=O)c1[nH]cnc1C(=O)Nc1cccc(Cl)c1 | inactive: -4.02% | – |
| COC(=O)[C@H](c1ccccc1Cl)N1CCc2sccc2C1 | inactive: -0.907% | – |
| C[C@]12CCC(=O)C=C1CC[C@@H]1[C@@H]2C(=O)C[C@@]2(C)[C@H]1CC[C@]2(O)C(=O)CO | – | inactive |
| CCOc1ccccc1N1CC(O)=C(c2nc3ccccc3s2)C1=N | – | active: 3.26 µM |
| O=C1CN(C(=O)Nc2ccccc2Cl)C(c2ccccc2)c2c(sc3c2CCCC3)N1 (stereo not given) | – | active: 23.1 µM |
| COC(=O)c1ccc(Cn2nc(-c3ccc(C)cc3)ccc2=O)cc1 | inactive: -2.05% | – |
| CC(C)c1ccc(NC(=O)CCS(=O)(=O)c2cccc3nonc23)cc1 | inactive: 6.34% | – |

| SMILES | activity change, negative = growth inhibition | Potency |
| --- | --- | --- |
| CCOc1[nH]n(-c2ccc(Cl)cc2)c(=O)c1C=NCC(=O)OC | inactive: -9.62% | – |
| Cc1ccc(C)c(N2CCN(C(=O)CC3Sc4ccccc4NC3=O)CC2)c1 (stereo not given) | – | active: 18.4 µM |
| COc1ccc(N(CCC#N)C(=O)/C(C#N)=C\c2cccs2)cc1 | inactive: -12.3% | – |
| O=c1cc(-c2ccccc2)[nH]n2cnnc12 | inactive: 35.8% | – |
| COCc1cc(=O)[nH]c(N2CCN(c3ccccc3OC)CC2)n1 | inactive: 52.7% | – |
| COc1ccc(N2C(=O)C(Cc3ccccc3)NC2=S)cc1 (stereo not given) | inactive: 31.4% | – |
| C[C@H]1NC(=O)[C@]2(C)[C@@H](c3ccccc3)[C@H]3COc4ccccc4[C@@H]3N2C1=O | inactive: -0.0375% | – |
| COc1cc(OC)cc(-c2cc3ccc(OC)cc3cn2)c1 | – | active: 16.4 µM |
| C[C@H]1CN([C@@H](C)CO)C(=O)CCCn2cc(nn2)CO[C@@H]1CN(C)S(=O)(=O)c1ccc2ccccc2c1 | inactive: -22.9% | – |
| Cn1c(CN2CCCCC2)nc2cc(NC(=O)c3ccc(Cl)cc3)ccc21 | inactive: -28.6% | – |
| O=C(Nc1cccc(Cl)c1)/C(=C\c1cccnc1)NC(=O)c1ccco1 | inactive: 36.7% | – |
| Cc1noc(C)c1NC(=O)N(C)C[C@H]1Oc2ccc(NC(=O)NC(C)C)cc2C(=O)N([C@H](C)CO)C[C@H]1C | inactive: 25.9% | – |
| Cc1ccc(C)c(-n2c(-c3cccnc3)n[nH]c2=S)c1 | inactive: 31.6% | – |
| C[C@@H]1CN([C@H](C)CO)C(=O)CCCn2nncc2CO[C@H]1CN(C)Cc1cccc(C(F)(F)F)c1 | – | active: 20.6 µM |
| COc1ccc([C@@H]2CNC(=O)C2)cc1OC1CCCC1 | – | inactive |
| O=C(O)c1cn(C2CC2)c2cc(N3CCN(S(=O)(=O)c4ccc5c(c4)OCCO5)CC3)c(F)cc2c1=O | – | active: 14.6 µM |
| Cc1cc(OC(=O)c2c(C)cc(O)cc2O)cc(O)c1C(=O)O | – | inactive |
| CCOC(=O)CSc1nc2cccnc2n1C | inactive: 32.2% | – |
| CC1(C)C2CC[C@@]1(C)C(=O)C2 | inactive: 0.488% | – |
| CCCCN(CC)CCNC(=O)c1cc2c(=O)[nH]c3ccccc3c2n1C | inactive: -4.95% | – |
| COc1cc(C(=O)NCC(c2cccnc2)N2CCN(c3ccc(F)cc3)CC2)cc(OC)c1OC (stereo not given) | inactive: -25.6% | – |
| Cc1nc(NCc2ccco2)c2c(C)c(C)sc2n1 | – | active: 2.06 µM |
